Laboratory results from PMC8639993.
Results are given in words; binding and its absence hold for the method and conditions named. For some of these results: Binding seen in cells or lysates may run through a third protein. Some entries that bind do so weakly or less than the wild type.

Protein sequences, listed by entry. Tags and fused reporters are not part of them. Lines headed by an entry give the natural chain unless they say otherwise; changes in a name come on top.
UniProt O94776: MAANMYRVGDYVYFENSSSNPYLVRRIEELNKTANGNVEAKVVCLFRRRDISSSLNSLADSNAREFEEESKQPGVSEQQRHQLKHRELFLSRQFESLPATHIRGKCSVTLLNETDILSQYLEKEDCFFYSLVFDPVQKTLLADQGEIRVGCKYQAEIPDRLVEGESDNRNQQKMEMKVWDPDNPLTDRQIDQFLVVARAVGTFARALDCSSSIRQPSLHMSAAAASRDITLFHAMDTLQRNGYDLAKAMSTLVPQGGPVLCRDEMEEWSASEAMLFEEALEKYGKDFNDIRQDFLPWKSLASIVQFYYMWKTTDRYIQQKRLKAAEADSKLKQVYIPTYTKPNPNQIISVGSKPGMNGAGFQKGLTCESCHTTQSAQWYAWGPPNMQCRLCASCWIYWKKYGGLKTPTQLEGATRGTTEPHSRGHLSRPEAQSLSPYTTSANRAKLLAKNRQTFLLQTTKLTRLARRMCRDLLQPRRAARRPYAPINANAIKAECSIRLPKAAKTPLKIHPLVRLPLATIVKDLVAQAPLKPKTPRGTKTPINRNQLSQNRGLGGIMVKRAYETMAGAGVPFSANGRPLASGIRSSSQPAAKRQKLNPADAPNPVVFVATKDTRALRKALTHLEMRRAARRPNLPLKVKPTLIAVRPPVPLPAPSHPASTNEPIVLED
UniProt Q14839: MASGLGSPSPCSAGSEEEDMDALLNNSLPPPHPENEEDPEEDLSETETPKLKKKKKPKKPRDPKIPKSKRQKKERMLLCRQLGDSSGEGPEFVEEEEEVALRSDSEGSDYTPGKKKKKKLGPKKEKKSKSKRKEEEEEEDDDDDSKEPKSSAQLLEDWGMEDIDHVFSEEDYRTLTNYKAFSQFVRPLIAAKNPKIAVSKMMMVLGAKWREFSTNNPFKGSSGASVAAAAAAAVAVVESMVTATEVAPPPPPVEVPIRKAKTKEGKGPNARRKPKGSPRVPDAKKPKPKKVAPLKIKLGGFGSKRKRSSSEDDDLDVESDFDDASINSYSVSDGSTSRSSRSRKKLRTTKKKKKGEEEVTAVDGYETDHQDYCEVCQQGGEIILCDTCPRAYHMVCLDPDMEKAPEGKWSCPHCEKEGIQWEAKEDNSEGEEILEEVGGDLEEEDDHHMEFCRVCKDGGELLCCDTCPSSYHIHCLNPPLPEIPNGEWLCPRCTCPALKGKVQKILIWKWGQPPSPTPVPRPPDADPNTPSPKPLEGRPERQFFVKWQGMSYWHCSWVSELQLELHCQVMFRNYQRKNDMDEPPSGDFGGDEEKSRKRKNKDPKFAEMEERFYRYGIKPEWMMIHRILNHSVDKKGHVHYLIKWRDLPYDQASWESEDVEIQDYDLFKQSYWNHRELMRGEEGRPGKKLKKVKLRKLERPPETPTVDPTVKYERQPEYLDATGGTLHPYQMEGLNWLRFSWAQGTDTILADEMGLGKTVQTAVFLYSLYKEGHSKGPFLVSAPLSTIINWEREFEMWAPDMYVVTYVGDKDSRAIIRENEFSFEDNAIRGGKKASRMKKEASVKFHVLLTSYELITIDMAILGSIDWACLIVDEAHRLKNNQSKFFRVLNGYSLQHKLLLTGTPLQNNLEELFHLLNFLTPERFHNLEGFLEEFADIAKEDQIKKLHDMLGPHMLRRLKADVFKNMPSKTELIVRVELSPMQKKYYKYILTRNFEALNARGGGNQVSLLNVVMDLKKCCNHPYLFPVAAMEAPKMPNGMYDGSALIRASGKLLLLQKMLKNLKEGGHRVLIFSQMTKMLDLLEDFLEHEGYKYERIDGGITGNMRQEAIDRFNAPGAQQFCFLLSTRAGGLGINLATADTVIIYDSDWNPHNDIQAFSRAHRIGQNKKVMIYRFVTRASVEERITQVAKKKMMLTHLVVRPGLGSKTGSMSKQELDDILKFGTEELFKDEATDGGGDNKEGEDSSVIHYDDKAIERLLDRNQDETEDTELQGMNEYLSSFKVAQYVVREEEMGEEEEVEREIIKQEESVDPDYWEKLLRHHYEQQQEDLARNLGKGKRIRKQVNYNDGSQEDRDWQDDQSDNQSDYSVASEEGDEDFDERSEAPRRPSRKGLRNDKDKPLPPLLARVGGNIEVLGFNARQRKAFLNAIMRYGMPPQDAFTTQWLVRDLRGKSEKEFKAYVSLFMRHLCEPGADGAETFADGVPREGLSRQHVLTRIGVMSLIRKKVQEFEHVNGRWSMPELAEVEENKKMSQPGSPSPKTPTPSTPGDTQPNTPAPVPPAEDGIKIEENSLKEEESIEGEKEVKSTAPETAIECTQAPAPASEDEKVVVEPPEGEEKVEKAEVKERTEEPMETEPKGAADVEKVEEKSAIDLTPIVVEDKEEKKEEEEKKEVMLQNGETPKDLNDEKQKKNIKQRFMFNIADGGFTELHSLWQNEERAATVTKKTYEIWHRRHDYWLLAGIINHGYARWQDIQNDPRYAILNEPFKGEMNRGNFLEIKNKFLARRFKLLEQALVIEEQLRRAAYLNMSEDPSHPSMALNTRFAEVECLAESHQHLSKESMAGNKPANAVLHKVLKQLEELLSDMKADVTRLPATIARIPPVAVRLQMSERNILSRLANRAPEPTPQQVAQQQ
UniProt Q9UKL0: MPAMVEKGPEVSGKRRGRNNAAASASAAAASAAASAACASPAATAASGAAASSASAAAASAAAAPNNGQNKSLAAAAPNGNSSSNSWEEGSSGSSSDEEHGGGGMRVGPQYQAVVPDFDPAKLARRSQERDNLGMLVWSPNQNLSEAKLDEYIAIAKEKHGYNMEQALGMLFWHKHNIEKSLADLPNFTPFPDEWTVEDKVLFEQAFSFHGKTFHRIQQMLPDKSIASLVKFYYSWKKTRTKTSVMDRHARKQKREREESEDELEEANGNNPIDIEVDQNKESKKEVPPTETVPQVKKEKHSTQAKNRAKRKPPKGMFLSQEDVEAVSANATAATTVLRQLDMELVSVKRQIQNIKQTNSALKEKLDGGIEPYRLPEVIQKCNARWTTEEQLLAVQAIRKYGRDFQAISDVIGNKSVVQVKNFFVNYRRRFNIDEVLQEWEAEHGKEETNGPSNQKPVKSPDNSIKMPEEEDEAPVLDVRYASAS
UniProt Q99684: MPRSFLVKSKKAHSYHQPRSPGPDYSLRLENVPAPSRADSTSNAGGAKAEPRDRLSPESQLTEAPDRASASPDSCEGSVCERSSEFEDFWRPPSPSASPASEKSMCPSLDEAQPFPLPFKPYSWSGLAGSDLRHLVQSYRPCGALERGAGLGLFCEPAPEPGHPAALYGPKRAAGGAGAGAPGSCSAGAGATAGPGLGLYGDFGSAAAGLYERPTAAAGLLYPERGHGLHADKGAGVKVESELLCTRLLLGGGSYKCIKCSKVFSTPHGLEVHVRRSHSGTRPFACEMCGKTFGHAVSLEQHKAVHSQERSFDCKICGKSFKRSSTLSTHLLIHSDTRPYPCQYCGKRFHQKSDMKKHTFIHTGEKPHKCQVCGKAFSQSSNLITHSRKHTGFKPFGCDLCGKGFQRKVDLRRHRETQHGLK
UniProt Q5VTD9: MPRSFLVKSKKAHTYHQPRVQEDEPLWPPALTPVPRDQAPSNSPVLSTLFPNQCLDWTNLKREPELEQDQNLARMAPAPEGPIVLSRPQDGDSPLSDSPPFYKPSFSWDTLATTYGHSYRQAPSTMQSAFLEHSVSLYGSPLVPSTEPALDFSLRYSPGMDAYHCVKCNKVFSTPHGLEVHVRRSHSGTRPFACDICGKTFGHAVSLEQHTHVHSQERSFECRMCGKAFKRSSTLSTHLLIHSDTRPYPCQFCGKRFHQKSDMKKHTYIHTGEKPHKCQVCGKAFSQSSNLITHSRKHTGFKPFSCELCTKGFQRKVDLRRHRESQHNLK
UniProt Q13547: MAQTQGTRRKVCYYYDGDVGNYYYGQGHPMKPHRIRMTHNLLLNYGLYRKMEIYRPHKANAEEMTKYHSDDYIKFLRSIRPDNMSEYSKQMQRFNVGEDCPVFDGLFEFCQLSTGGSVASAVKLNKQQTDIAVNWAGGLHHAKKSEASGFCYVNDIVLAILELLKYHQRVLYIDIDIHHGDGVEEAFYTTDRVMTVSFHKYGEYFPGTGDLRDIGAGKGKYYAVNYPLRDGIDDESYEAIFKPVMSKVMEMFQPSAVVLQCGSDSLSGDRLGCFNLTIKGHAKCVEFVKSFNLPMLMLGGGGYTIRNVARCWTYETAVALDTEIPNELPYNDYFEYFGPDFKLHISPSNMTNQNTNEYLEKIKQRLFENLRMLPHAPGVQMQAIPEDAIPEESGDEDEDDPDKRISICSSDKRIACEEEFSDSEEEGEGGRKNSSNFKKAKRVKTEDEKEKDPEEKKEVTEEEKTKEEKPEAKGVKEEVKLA

Columns and labels:
[1] = target: metastasis-associated 2 (MTA2) (human (endogenous in HEK293T, THP-1 and Kasumi cells)) (UniProt O94776); experiment: co-IP; THP-1 cell extracts, immunoprecipitation with anti GFI1 or anti MTA2 antibodies; western blot for CHD4, MTA2 or GFI1; all endogenous
[2] = target: chromodomain helicase DNA binding protein 4 (CHD4) (human (endogenous in HEK293T, THP-1 and Kasumi cells)) (UniProt Q14839); experiment: co-IP; extracts of HEK293T cells transfected with Flag-tagged GFI1 truncation and deletion mutants precipitated with anti CHD4 or anti MTA2 antibodies; western blot with anti-Flag
[3] = target: metastasis-associated 2 (MTA2) (human (endogenous in HEK293T, THP-1 and Kasumi cells)) (UniProt O94776); experiment: as above
[4] = target: RCOR1 (human (endogenous in HEK293T and Kasumi cells)) (UniProt Q9UKL0); experiment: co-IP; extracts of HEK293T cells transfected or not with full-length Flag-tagged GFI1, precipitated with anti-MTA2 or anti-RCOR1 antibodies; western blot for MTA2, RCOR1, LSD1 or GFI1
[5] = target: metastasis-associated 2 (MTA2) (human (endogenous in HEK293T, THP-1 and Kasumi cells)) (UniProt O94776); experiment: as above
[6] = target: GFI1-Flag fusion protein (full-length Flag-tagged GFI1) (UniProt Q99684); experiment: co-IP; nuclear extracts of HEK293T cells expressing Flag-tagged GFI1 or GFI1B precipitated with anti-Flag agarose; western blot for endogenous proteins
[7] = target: GFI1B-Flag-tagged fusion protein (UniProt Q5VTD9); experiment: as above
[8] = target: GFI1-Flag fusion protein (full-length Flag-tagged GFI1) (UniProt Q99684); experiment: co-IP; immunoprecipitation of extracts from transfected HEK293T cells expressing Flag-tagged GFI1 (Suppl. Fig. 1F); precipitating antibody not given
[9] = target: GFI1 (endogenous) (human (endogenous in THP-1 and Kasumi cells)) (UniProt Q99684); experiment: SEC; nuclear extracts of Kasumi cells on Superose 6 10/300 in 50 mM sodium phosphate pH 7, 150 mM NaCl, 10% glycerol, 0.5% NP40, 0.5% Triton-X100; 0.5 ml fractions TCA-precipitated and blotted; GFI1 peaks at around 2 MDa and 0.5 MDa
[10] = target: GFI1 (endogenous) (human (endogenous in THP-1 and Kasumi cells)) (UniProt Q99684); experiment: co-IP; THP-1 cell extracts, immunoprecipitation with anti GFI1 or anti MTA2 antibodies; western blot for CHD4, MTA2 or GFI1; all endogenous

Row | Substance | binding [2] | binding [3] | binding [6] | binding [7] | binding [9] | binding [1] | further results
1 | GFI1 (endogenous) (from UniProt Q99684 1-422) |  |  |  |  |  | binds | 
2 | HDAC1 (from UniProt Q13547 1-482) (enzyme) |  |  | binds | binds |  |  | 
3 | chromodomain helicase DNA binding protein 4 (CHD4) (from UniProt Q14839 1-1912) |  |  | binds | binds | binds | binds | binding [10]: binds
4 | truncated GFI1 protein N152–258-Flag (from UniProt Q99684 152-258) (domain or fragment) | no binding | no binding |  |  |  |  | 

Second part, led by results:

Row | binding [2] | binding [3] | binding [6] | binding [7] | binding [9] | Substance | binding [1] | further results
5 | binds | binds |  |  |  | GFI1-Flag fusion protein (full-length Flag-tagged GFI1) (from UniProt Q99684 1-422) |  | binding [4]: binds; binding [5]: binds
6 |  |  |  |  | binds | RCOR1 (from UniProt Q9UKL0 1-485) |  | binding [8]: binds
